Results taken from PubChem BioAssay AID1963968 (Molecular Pharmacology Branch, DTP, NCI, 2024).
For part of its entries the source gives two or more results. This is not the full list of results. The source may hold further records. The records of an entry are repeated measurements (runs, samples, wells, individuals or studies).

Test system: 945468-187-T-J3-PDC spheroids with HUVEC/MSC, viability
Assay: Anticancer human tumor 945468-187-T-J3-PDC patient-derived rectal carcinoma cell line growth inhibition [PI3K]
Settings: for viability, T/C: stronger effect = lower value; for IC50: compound alone
Text: Combinatorial screen of targeted agents with the PI3K inhibitors inavolisib, alpelisib, duvelisib, and copanlisib in multi-cell type tumor spheroids
A high-throughput screen of multi-cell type tumor spheroids was designed to identify active combinations of targeted small molecules and PI3K pathway inhibitors. Complex spheroids include a stromal component modeled by human endothelial cells (HUVEC) and fibroblasts modeled by human mesenchymal stem cells (MSCs). The concentration ranges selected for each drug and investigational agent were based upon clinically achievable concentrations if the clinical Cmax of the agent was known.
Compounds. The drugs and investigational agents: inavolisib (NSC800729), alpelisib (NSC765974), duvelisib (NSC772469), copanlisib (NSC816437), ipatasertib (NSC767898), afuresertib (NSC778305), talazoparib (NSC767125), sapanisertib (NSC764658), selumetinib (NSC741078), tovorafenib (DAY101, NSC766906), vemurafenib (NSC761431), ravoxertinib (NSC781343), sotorasib (NSC818433), MRTX1133 (NSC 836407), abemaciclib (NSC 768073), palbociclib (NSC758247), venetoclax (NSC 766270), SY5609 (NSC837396), enzalutamide (NSC755605), and darolutamide (NSC825331), were obtained from the National Cancer Institute (NCI) Developmental Therapeutics Program Chemical Repository. The FDA-approved anticancer drug set is available from the NCI Developmental Therapeutics Program. […] The stock solutions were prepared in dimethyl sulfoxide (DMSO, Sigma-Aldrich, St. Louis, MO, cat. D2650) at 800-fold the tested concentration and stored at -70 degrees C prior to their use. All drugs and investigational agents were tested over a range starting from a high concentration at or near the clinical Cmax and decreasing in half-log increments. If the clinical Cmax for an agent had not been determined, the highest concentration tested was 10 microM.
Cell Culture. All cells were maintained in an incubator at 37 degrees C and 5% CO2 with 95% humidity. The PDC lines were cultured according to standard operating procedures established by the NCI PDMR (https://pdmr.cancer.gov/sops/default.htm). All PDCs were thawed and cultured in Matrigel-coated flasks prepared with a working solution of 1X Ham's F-12 nutrient mix, without supplementation (Invitrogen, Waltham, MA, cat. 11765054), 100 U/mL penicillin-streptomycin (Invitrogen, cat. 15140122), and 2.5% Matrigel (Corning Inc., Corning, NY, cat. 354248) for the first three passages. The 354836-022-R-J1-PDC, 475296-252-R-J1-PDC, and 997726-040-R-J2-PDC lines were cultured in 6A media, which includes advanced DMEM/F-12 (Thermo Fisher Scientific, cat. 12634028), 10 mM HEPES (Thermo Fisher Scientific, cat. 15630080), 1X GlutaMAX supplement (Thermo Fisher Scientific, cat. 35050061), 0.1 mg/mL primocin (InvivoGen, San Diego, CA, cat. ant-pm-2), 10% defined fetal bovine serum, heat inactivated (HyClone Laboratories Inc., Logan, UT, cat. SH30070.03HI), 50% L-WRN conditioned media (ATCC, cat. CRL-3276), 1.25 mM N-Acetyl-L-cysteine (Sigma-Aldrich, cat. A9165), 10 mM nicotinamide (Sigma-Aldrich, cat. N0636), 1X B-27 supplement (Thermo Fisher Scientific, cat. 17504044), 1X N-2 supplement (Thermo Fisher Scientific, cat. 17502048), and 10 microM Y-27632 dihydrochloride (Tocris Bioscience, Bristol, United Kingdom, cat. 1254). The 624824-186-R-J2-PDC line was cultured in 6C/Colon 1B media, which includes all 6A media components plus 50 ng/mL human EGF recombinant protein (Thermo Fisher Scientific, cat. PHG0311). […]
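Further: spheroids exposed to agents for 7 days before viability read.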
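Wherever viability, T/C is given: 100% = DMSO vehicle control viability.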

Compound: Cn1cnc2c(F)c(Nc3ccc(Br)cc3Cl)c(C(=O)NOCCO)cc21
- viability, T/C (compound alone 3 µM): 114, 105, 84.4, 89%

Compound: CC1(C)CCC(CN2CCN(c3ccc(C(=O)NS(=O)(=O)c4ccc(NCC5CCOCC5)c([N+](=O)[O-])c4)c(Oc4cnc5[nH]ccc5c4)c3)CC2)=C(c2ccc(Cl)cc2)C1
- viability, T/C (compound alone 10 µM): 12.8, 64.2, 109, 28.2%

Compound: CNC(=O)c1ccc(N2C(=S)N(c3ccc(C#N)c(C(F)(F)F)c3)C(=O)C2(C)C)cc1F
- viability, T/C (compound alone 1 µM): 107, 118, 96, 91.2%

Compound: Cn1nccc1Nc1nccc(-c2ccn(C(CO)c3ccc(Cl)c(F)c3)c(=O)c2)n1 (stereo not drawn)
- viability, T/C (compound alone 0.316 µM): 121, 104, 110, 95.5%
- viability, T/C (compound alone 10 µM): 141, 123, 138, 115%

Compound: CC(C)n1nc(-c2ccc3oc(N)nc3c2)c2c(N)ncnc21
- viability, T/C (compound alone 0.0316 µM): 123, 110, 108, 94.8%
- viability, T/C (compound alone 0.1 µM): 77, 68.5, 52.7, 47.8%

Compound: Cn1ncc(Cl)c1-c1cc(C(=O)NC(CN)Cc2cccc(F)c2)sc1Cl (stereo not drawn)
- IC50: > 10 µM, 2.01 µM, 921 nM
- viability, T/C (compound alone 1 µM): 75.7, 82.9, 58, 47.6%

Compound: CCCS(=O)(=O)Nc1ccc(F)c(C(=O)c2c[nH]c3ncc(-c4ccc(Cl)cc4)cc23)c1F
- viability, T/C (compound alone 0.316 µM): 114, 104, 90.7, 87.9%
- viability, T/C (compound alone 10 µM): 19.4, 16.8, 29.4, 43.7%

Compound: CC(C)NCC(C(=O)N1CCN(c2ncnc3c2C(C)CC3O)CC1)c1ccc(Cl)cc1 (stereo not drawn)
- IC50: > 10 µM, 6.22 µM, 5.57 µM, 4.64 µM
- viability, T/C (compound alone 0.1 µM): 112, 103, 99, 84.9%

Compound: CC1(C)CCC(Nc2ncc(C(F)(F)F)c(-c3c[nH]c4c(P(C)(C)=O)c(C#N)ccc34)n2)CN1 (stereo not drawn)
- viability, T/C (compound alone 0.1 µM): 68.1, 82.9, 58, 43.4%
- viability, T/C (compound alone 0.316 µM): 71.8, 74, 57.5, 40%
- viability, T/C (compound alone 1 µM): 87.8, 93.3, 57.9, 52.4%
- viability, T/C (compound alone 3.16 µM): 84.4, 102, 82.8, 67.3%

Compound: CC(Nc1ccc2c(c1)OCCn1cc(N3C(=O)OCC3C(F)F)nc1-2)C(N)=O (stereo not drawn)
- viability, T/C (compound alone 0.1 µM): 109, 104, 106, 114, 107, 88.9, 101%
